In the supplement of paper PMC9446081:
Out of some 39,000 compounds screened, about 220 (0.56%) showed activity. The list shows a part of the results.

These compounds were tested on Escherichia coli K-12 BW25113 (assay: relative growth (OD600 normalised to plate interquartile mean) (fraction); higher = less growth inhibition, active = 0.2 or less). Conditions: 50 µM; LB; incubation time: overnight (16-24 h).
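Also: static incubation at 37 °C against the wild-type strain, values averaged over two biological replicates.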

SMILES | relative growth
C[C@H]1CCCCO[C@@H](CN(C)Cc2ccc3c(c2)OCO3)[C@@H](C)CN([C@@H](C)CO)C(=O)c2cc(NC(=O)Nc3ccc(F)cc3)ccc2O1 | inactive: 0.935
CO[C@H]1CN(C)C(=O)c2cc(NC(C)=O)ccc2OC[C@@H](C)N(S(=O)(=O)c2cn(C)cn2)C[C@@H]1C | inactive: 1.01
C[C@H]1CN([C@@H](C)CO)C(=O)Cc2cc(NS(=O)(=O)c3ccc(F)cc3)ccc2O[C@@H]1CN(C)S(=O)(=O)c1ccc(F)cc1 | inactive: 1.04
C[C@H]1CN([C@@H](C)CO)C(=O)c2cc(NC(=O)CCN3CCOCC3)ccc2O[C@H]1CN(C)Cc1ccccc1 | inactive: 0.976
C[C@@H]1CN([C@H](C)CO)C(=O)c2cccc(NS(=O)(=O)c3cccs3)c2O[C@@H]1CN(C)Cc1ccc(-c2ccccc2)cc1 | inactive: 1.01
C[C@@H]1CN([C@@H](C)CO)C(=O)Cc2cc(NC(=O)Nc3ccccc3)ccc2O[C@@H]1CN(C)Cc1ccc(-c2ccccc2)cc1 | inactive: 1.02
CO[C@H]1CN(C)C(=O)c2cc(NC(=O)CC(F)(F)F)ccc2OC[C@H](C)N(S(=O)(=O)c2cn(C)cn2)C[C@H]1C | inactive: 0.964
OCC1OC(Oc2ccc(O)cc2)C(O)C(O)C1O (configuration not stated) | inactive: 0.993
O=C(C[C@@H]1C=C[C@@H](NC(=O)CN2CCOCC2)[C@@H](CO)O1)NC1CCCCC1 | inactive: 0.978
Cc1noc(C)c1S(=O)(=O)Nc1ccc2c(c1)CC(=O)N([C@H](C)CO)C[C@H](C)[C@@H](CN(C)Cc1ccc(Oc3ccccc3)cc1)O2 | inactive: 0.996
C[C@@H]1CCCCO[C@@H](CN(C)Cc2ccncc2)[C@@H](C)CN([C@H](C)CO)C(=O)c2cc(NC(=O)Cc3ccccc3)ccc2O1 | inactive: 1
CNC[C@@H]1OCCCC[C@H](C)Oc2ccc(NC(=O)c3ccncc3)cc2C(=O)N([C@H](C)CO)C[C@@H]1C | inactive: 0.99
C[C@H](CO)N1C[C@H](C)[C@H](CN(C)S(=O)(=O)c2ccccc2)OCCCC[C@H](C)Oc2ccc(NC(=O)CCC(F)(F)F)cc2C1=O | inactive: 1.01
CC(C)NC(=O)Nc1cccc2c1O[C@@H](CN(C)Cc1ccc3c(c1)OCO3)[C@@H](C)CN([C@@H](C)CO)C2=O | inactive: 1.01
COc1ccc([Si](C)(C)[C@H]2[C@H](CC(=O)N(CCO)Cc3ccccc3)O[C@@]3(C(=O)N(Cc4cccc(N5CCC5=O)c4)c4ccccc43)[C@@H]2C)cc1 | inactive: 1.02
C[C@H]1CCCCO[C@@H](CN(C)S(=O)(=O)c2ccc(Cl)cc2)[C@@H](C)CN([C@@H](C)CO)C(=O)c2cc(NC(=O)NC3CCCCC3)ccc2O1 | inactive: 1
COC(=O)[C@@H](N)Cc1ccc(O)c(O)c1 | inactive: 0.974
C[C@@H]1CCCCO[C@H](CN(C)C(=O)NC2CCCCC2)[C@H](C)CN([C@@H](C)CO)C(=O)c2cc(NC(=O)Cc3ccccc3)ccc2O1 | inactive: 0.97
COCC#Cc1ccc2c(c1)O[C@H](CN(C)S(C)(=O)=O)[C@@H](C)CN([C@H](C)CO)S2(=O)=O | inactive: 0.982

SMILES | relative growth
CC(C)(C)N1C[C@H](C(=O)O)CC1=O | inactive: 1
Cc1ccc(-c2ccc3c(c2)O[C@H](CN(C)C(=O)Nc2ccc(C(F)(F)F)cc2)[C@H](C)CN([C@H](C)CO)S3(=O)=O)cc1 | inactive: 0.94
Cc1ccc(S(=O)(=O)Nc2ccc3c(c2)C(=O)N([C@@H](C)CO)C[C@@H](C)[C@@H](CN(C)S(=O)(=O)c2ccc(Cl)cc2)OCCCC[C@@H](C)O3)cc1 | inactive: 1.04
C[C@H]1CCCCO[C@H](CN(C)S(=O)(=O)c2cn(C)cn2)[C@@H](C)CN([C@@H](C)CO)C(=O)c2cc(NS(=O)(=O)c3cn(C)cn3)ccc2O1 | inactive: 0.995
O=C(O[C@@H]1O[C@@H]2COC(=O)c3cc(Oc4c(C(=O)O)cc(O)c(O)c4O)c(O)c(O)c3-c3c(cc(O)c(O)c3O)C(=O)O[C@H]2[C@H](OC(=O)c2cc(O)c(O)c(O)c2)[C@H]1OC(=O)c1cc(O)c(O)c(O)c1)c1cc(O)c(O)c(O)c1 | inactive: 0.558
COc1cc(NC(=O)c2cccc(-n3cc(NC(=O)Nc4cccc(C)c4)cn3)c2)cc(OC)c1OC | inactive: 0.982
CC(C)[Si]1(C(C)C)OCc2cc(-c3ccc(-c4ccc(Cl)c(Cl)c4)o3)nc(-c3ccc(Oc4ccccc4)cc3)c21 | inactive: 1
C[C@@H]1CN([C@@H](C)CO)C(=O)c2c(c3ccccc3n2C)-c2ccccc2CO[C@@H]1CN(C)Cc1ccccc1 | inactive: 0.997
CC(C)C(=O)NCc1nccc(N(C)C)n1 | inactive: 1.03
C[C@@H]1CN([C@@H](C)CO)C(=O)CCCn2cc(nn2)CO[C@@H]1CN(C)C(=O)Nc1ccccc1C(F)(F)F | inactive: 1.01
C[C@@H]1CN([C@H](C)CO)C(=O)c2cc(NS(=O)(=O)c3cccs3)ccc2O[C@@H](C)CCCCO[C@@H]1CN(C)C(=O)CCC(F)(F)F | inactive: 0.986
CNC(=O)C[C@H]1C[C@@H]2CN(S(=O)(=O)c3cccnc3)C[C@@H]2O1 | inactive: 0.995
CC(C)NC(=O)N(C)C[C@H]1OCCCC[C@H](C)Oc2ccc(NC(=O)Nc3ccc(C(F)(F)F)cc3)cc2C(=O)N([C@H](C)CO)C[C@H]1C | inactive: 1.02
C[C@@H]1CN([C@H](C)CO)C(=O)c2cccc(NC(=O)c3ccc(-c4nccs4)cc3)c2O[C@H]1CN(C)C(=O)Nc1ccc(C(F)(F)F)cc1 | inactive: 0.847
COc1ccc(S(=O)(=O)N(C)C[C@@H]2Oc3ccc(NC(=O)NC(C)C)cc3CC(=O)N([C@@H](C)CO)C[C@@H]2C)cc1 | inactive: 1.01
CC(C)CC#Cc1ccc2c(c1)O[C@@H](CN(C)C(=O)c1cnccn1)[C@@H](C)CN([C@@H](C)CO)S2(=O)=O | inactive: 1.01
O=S(=O)(NCC[C@@H]1CC[C@@H](NS(=O)(=O)c2cccc(Cl)c2)[C@@H](CO)O1)c1cccc(F)c1 | inactive: 1.01
COCC#Cc1cnc2c(c1)C(=O)N([C@H](C)CO)C[C@H](C)[C@@H](CN(C)C(=O)CN1CCOCC1)O2 | inactive: 1
